Data as given in PubChem BioAssay AID1963576 (National Center for Advancing Translational Sciences (NCATS), 2024).
The whole screen tested about 46,000 compounds, of which about 60 (0.1%) were called active. Inconclusive results (about 3%) are left out. Calls follow the shape of the dose curve; as a rule, active = well fitted inhibition curve with a large enough effect; inconclusive = small, poorly fitted or top-dose-only effect; inactive = no such curve, though single readings can be large or run the other way. This is one part of the list.

experiment: Primary qHTS assay for Inhibitors of ovarian cancer metastasis using an organotypic tumor microenvironment (TME) model.; also: nearly all actives have a fitted effect of over 65% in size;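 as to activity change, negative = inhibition: plate controls were DMSO wells for no effect and tomatine positive control wells for full effect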; settings: SKOV3ip1-GFP adhesion/invasion on 3D omental model, fluorescence; series mostly up to 45.8 µM; activity change, negative = inhibition: at the top concentration
Method in brief: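 Primary human omental fibroblast/mesothelial 3D culture pre-formed 48 h. SKOV3ip1-GFP cells added with compounds (0.36-46 umol/L), incubated 2 h RT/16 h 37 C, fixed; GFP cells quantified at 488/509 nm.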

Activity change, negative = inhibition, inactive:
COc1ccccc1N(CC(=O)NCCSCc1ccc(Cl)cc1)S(C)(=O)=O 7.83%
Cc1cc(-c2ccc(C)c(S(=O)(=O)NCc3ccc(Cl)cc3)c2)on1 -14.9%
CCCS(=O)(=O)NCCc1csc2nc(-c3ccc(OC)cc3)nn12 18.2%
CCc1c(C)nc2nncn2c1Nc1ccc(C)c(F)c1 5.71%
Cc1ccccc1CNC(=O)CCCn1nc(C)c2sc3ccccc3c2c1=O 1.17%
COc1cccc(C(=O)Nc2nnc(S(=O)(=O)N3CCOCC3)s2)c1 34.8%
CCOC(=O)c1c(C)[nH]c(C)c1S(=O)(=O)N1CCC(C(=O)Nc2ccccn2)CC1 3.28%
COc1ccc(C2CC(=O)Nc3c2c(=O)nc2c(C)cccn32)cc1 (configuration not stated) 5.68%
CCC12CN3CC(CC)(CN(C1)C3c1ccc(OCc3ccccc3)cc1)C2=O (configuration not stated) 4.94%
Cc1cc(C)c2c(=O)cc(C(=O)Nc3ccccc3Cl)oc2c1 -4.51%
CCc1ccc(-c2nc3c(c(SCc4ccc(F)cc4)n2)Cc2c(CO)cnc(C)c2O3)cc1 9.67%
CCS(=O)(=O)N1CC(=O)N(c2ccc(C)c(C)c2)C(C)(C(=O)NC2CCCCC2)C1 (configuration not stated) 7.01%
CCC(C)NC(=O)C1CCC(CNS(=O)(=O)c2cccc3nsnc23)CC1 (configuration not stated) 1.73%
O=c1oc2ccc(Br)cc2cc1-c1nc(-c2ccccc2)no1 -9.89%
CC1=C(C(=O)NCCc2ccc(Cl)cc2)C2(CCCCC2)OC1=O -2.5%
COCCNC(=O)CCCn1c(SCC(=O)Nc2cccc(C)c2)nc2c(sc3ccccc32)c1=O -9.88%
COc1ccc(N2CCN(C(c3ccccc3)c3nnc(-c4ccccc4Cl)o3)CC2)cc1 (configuration not stated) -0.738%
Cc1cccc(NC(=O)CSc2nc3c(oc4ccccc43)c(=O)n2C(C)C)c1 -27%
CCOc1ccc(N2CC(c3nc4ccccc4n3CC(C)C)CC2=O)cc1 (configuration not stated) 1.34%
COCC(=O)N1CCc2cc(OC)c(OC)cc2C1COc1ccc2c(C)cc(=O)oc2c1 (configuration not stated) 8.66%
COc1cc(NC(=O)CCNS(=O)(=O)c2ccc3c(c2)CCN3C(=O)C2CC2)cc(OC)c1 54.8%
COc1cccc(CNC(=O)Cn2ccc3cc(S(=O)(=O)N4CCCC4)ccc32)c1 1.65%
CCOc1ccccc1N1CC(c2nc3ccccc3n2CCCOc2ccccc2OC)CC1=O (configuration not stated) 0.951%
O=C(Nc1nc2nc(-c3ccccc3)cc(=O)n2[nH]1)c1ccc(F)cc1 3.29%
N#Cc1ccccc1Cn1nnc2c(=O)[nH]c(C3CCCN(S(=O)(=O)c4ccc(F)cc4)C3)nc21 (configuration not stated) -9.38%
O=C(Nc1sc2c(c1C(=O)NCc1ccccc1)CCCC2)c1cc(=O)c2cc(Cl)ccc2o1 -1.14%
CCc1ccccc1N1CC(c2nc3ccccc3n2Cc2cccc(C)c2)CC1=O (configuration not stated) 1.25%
O=C(Nc1cccnc1Cl)c1cc(-c2ccc(Cl)cc2)on1 -4.67%
CC1CCc2nn(CC(=O)Nc3cccc(C(F)(F)F)c3)c(=O)cc2C1 (configuration not stated) 5.39%
O=C(NCc1ccccc1)C1CCC(CNS(=O)(=O)c2ccc(Br)s2)CC1 (configuration not stated) 0.731%
COc1ccc(CN(C(=O)Nc2ccc(C)c(F)c2)C2CCN(C(C)=O)CC2)cc1 1.06%
CC(C)c1ccc(C(=O)Nc2cccc3cccnc23)cc1 3.18%
CNC(=O)c1cc2n(n1)CCCN(Cc1ccc(F)cc1)C2=O -12.6%
O=C1C(c2ccc(F)cc2)N(CCc2ccccc2)C(=O)CN1C1CCCCC1 (configuration not stated) 4.58%
CC1CCN(S(=O)(=O)c2cc(C(=O)NCc3ccc(F)cc3)n(C)c2)CC1 -10.9%
COc1cccc(COC(=O)c2ccc(-c3nnn(Cc4ccccc4)n3)cc2)c1 3.18%
Cc1ccccc1C(=O)Nc1nnc(SCc2cc(=O)c3c(C)ccc(C)c3[nH]2)s1 17%
CCc1ccc(NC(=O)Cn2nnc(C(=O)NCc3ccco3)c2N)cc1 4.87%
Cc1ccc(NC(=O)CCS(=O)(=O)c2ccc3nc(C)sc3c2)cc1 6.58%
CSc1ccc(CCNC(=O)c2cc3n(n2)CCCN(Cc2ccc(C)cc2)C3=O)cc1 -1.7%
CCOc1ccc(CCNS(=O)(=O)c2c(C)nc3sc(C)cn3c2=O)cc1OCC -3.02%
COC(=O)c1ccc(Cn2nc(-c3ccc(C)c(C)c3)ccc2=O)cc1 -1.47%
CC(C)c1ccc(NS(=O)(=O)c2ccc3[nH]c(=O)ccc3c2)cc1 4.9%
O=C(Nc1noc2ccccc12)c1cccc(F)c1 5.42%
COCCc1nn2c(=O)cc(COC(=O)COc3ccccc3C)nc2s1 -8.75%
O=C(CCS(=O)(=O)c1cc2c3c(c1)CCN3C(=O)CC2)NCc1ccc(F)cc1 4.92%
COc1ccc(Cl)cc1Nc1ncnc2c1nc1n2CCCC1 0.409%
COC(=O)c1ccc(C2c3c(oc4cc(C)c(C)cc4c3=O)C(=O)N2c2ccccn2)cc1 (configuration not stated) -3.36%
CCOC(=O)c1c(S(=O)(=O)N2CCCC(C(=O)Nc3ccc(C)cc3C)C2)c(C)n(CC)c1C (configuration not stated) 2.15%
CCOC(=O)c1ccccc1NC1(c2ccc(OC)cc2)C(=O)c2ccccc2C1=O 6.69%
Cc1cc(C)c(NC(=O)CSc2nnc3[nH]c(=O)cc(C)n23)c(C)c1 -4.54%
O=c1c2ccccc2n2c(-c3ccc(F)c(F)c3)nnc2n1CCc1ccccc1 0.589%
O=C(NCc1ccc(Cl)cc1)C(=O)NCC(c1ccco1)S(=O)(=O)c1cccs1 (configuration not stated) -8.26%
CCCCNC(=O)c1ccc2c(=O)n(-c3ccccc3)c(=O)[nH]c2c1 -2.82%
Cc1ccc(NC(=O)c2sc3nc(-c4ccc(F)cc4)cn3c2C)c(C)c1 -1.16%
CC(=O)Nc1ccc(C(=O)CSc2nnc3cc(C)c4ccccc4n23)cc1 14.2%
CCOC(=O)C1CCN(C(=O)CSc2c3c(nc4ccc(Cl)cc24)CCCC3)CC1 -6.9%
O=C(NCC1(c2ccccc2)CCCC1)C(=O)Nc1cccc(C(F)(F)F)c1 -3.06%
CCOc1ccc(CCNC(=O)CSc2cc(=O)n(C)c3ccccc23)cc1OCC 0.542%
O=C(CSc1n[nH]c(-c2ccccc2)n1)N1CCCCC1 -0.602%
COC(=O)c1sccc1S(=O)(=O)N1CCN(c2cccc(C)c2C)CC1 -0.94%
COc1ccc(-c2cc(C(=O)N3CCN(c4ccccc4OC)CC3)c3cc(C(C)C)ccc3n2)cc1 -3.01%
Cc1ccc(Cl)cc1N1CCN(C(c2ccc(F)cc2)c2nnc(-c3ccccc3)o2)CC1 (configuration not stated) -14.1%
CCOC(=O)Cn1c(=O)oc2cc(S(=O)(=O)NCc3ccc(F)cc3)ccc21 23.8%
Cc1noc(/C=C/N(C)C)c1S(=O)(=O)N1CCCC(C(=O)Nc2cccc(F)c2)C1 (configuration not stated) 21.4%
CCOc1ccc(CC(=O)NCCc2csc3nc(-c4ccccc4F)nn23)cc1 -8.58%
CC(C=CC(=O)NO)=C[C@@H](C)C(=O)c1ccc(N(C)C)cc1 -0.223%
CCOc1ccc(-c2cc3c(=O)n(Cc4nc(-c5cccc(OC)c5OC)oc4C)ccn3n2)cc1Cl -8.31%
CCc1ccc(-n2nc3ccc(NC(=O)c4cc5ccccc5o4)cc3n2)cc1 10.5%
COc1ccc(OC)c(S(=O)(=O)N2Cc3ccccc3CC2C(=O)Nc2ccc(C(C)=O)cc2)c1 (configuration not stated) -24.2%
Cc1cc(C)c(Cn2c3ccccc3c3cnn(CC(=O)NCCCc4ccccc4)c(=O)c32)c(C)c1 -5.82%
O=C(NCc1cccc(Cl)c1)c1cccn1-c1nnc(N2CCCC2)s1 -28.3%

outcome, inactive:
COc1ccc(C2NC(=O)NC(C)=C2C(=O)Nc2cc(C)cc(C)c2)c(OC)c1 (configuration not stated)
Cc1ccc(CS(=O)(=O)Cc2ccc(C(=O)NCCc3ccc(Cl)cc3)o2)cc1
COc1cc(OC)cc(C(=O)Nc2ccc3nc(N4CCC(C)CC4)cc(C)c3c2)c1
CCCCOc1cccc(C(=O)Nc2cccc3ccc(C)nc23)c1
Cc1ccc2oc(=O)n(CCNC(=O)Nc3ccccc3Cl)c2c1
Cc1ccc2c(CC(=O)Nc3cc(C(F)(F)F)ccc3Cl)coc2c1C
COc1ccc(C(=O)c2oc3ccccc3c2NC(=O)COc2c(C)cc(C)cc2C)cc1
COc1cccc(CNC(=O)Cn2ncc3c4ccccc4n(C)c3c2=O)c1
COc1cccc(CNC(=O)c2c(O)nc3ccccn3c2=O)c1
Cc1ccc(C)c(N2CCN(C(=O)c3ccc4c(Cl)c5c(nc4c3)CCCC5)CC2)c1
COc1cc(-c2noc(-c3ccc(NCCc4ccccc4)c([N+](=O)[O-])c3)n2)cc(OC)c1OC
CCOc1ccc(S(=O)(=O)NCCc2sc(-c3ccc(C)cc3)nc2C)cc1
COc1cc(NC(=O)Cn2c(=O)n(C(C)C)c(=O)c3oc4ccccc4c32)cc(OC)c1
CCC1CN(C(=O)N2CCC(C(=O)NCCOC)CC2)c2ccccc2O1 (configuration not stated)
CC(=O)c1ccc(NC(=O)CCc2c(C)nn(-c3ccc4nncn4n3)c2C)cc1
CCc1ccc(NC(=O)C2CCCN(S(=O)(=O)c3c(C)[nH]c(=O)[nH]c3=O)C2)cc1 (configuration not stated)
CC(C)c1ccc(NC(=O)C2CCCN(S(=O)(=O)c3cccc4nonc34)C2)cc1 (configuration not stated)
CCC(=O)Nc1ccc2nc(SCC(=O)N3CCc4ccccc43)sc2c1
Cc1ccc(CNC(=O)c2ccc(-c3nc(CN4CCc5ccccc54)c(C)o3)cc2)cc1
COc1ccc(CCC(=O)NC2CC(=O)N(c3ccc(C)c(C)c3)C2)cc1 (configuration not stated)
CCOc1ccc(S(=O)(=O)Nc2ccc3c(c2)c(C(C)=O)c(C)n3S(=O)(=O)c2ccc(OCC)cc2)cc1
COc1ccc2nc(NS(=O)(=O)c3ccc(C)cc3)c(Nc3cc(Cl)ccc3OC)nc2c1
COc1ccc(CNC(=O)C(=O)NCC(c2ccc3c(c2)OCO3)N2CCOCC2)cc1 (configuration not stated)
Cc1ccc(CNC(=O)c2cn(C)c3ccc(S(=O)(=O)N(C)C4CCCCC4)cc3c2=O)cc1
Cc1ccc(CNC(=O)c2nc(SCc3cccc(C)c3)ncc2Cl)cc1
